# The list shows a part of the results.
# Experiments:
# Assay in all cases: glycan array binding signal (z-score within array); higher = stronger binding
# Conditions in all cases: glycan notation: IUPAC condensed, linker removed
# [1] = molecular target: Fuc(a1-2)[GalNAc(b1-3)]Gal
# Method in brief: (§1)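 Arrays were curated from the Consortium for Functional Glycomics database, 3228 in total, and kept only where the protein sequence was available. Binding is expressed as a within-array Z-score. This score was averaged across arrays of the same protein sequence at different concentrations or buffers and across linkers, and negative values can be read as non-binding.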
# [2] = molecular target: Fuc(a1-3)GlcNAc
# Method in brief: as §1
# [3] = molecular target: Fuc(a1-3)[Gal(b1-4)]Glc6S
# Method in brief: as §1
# [4] = molecular target: Fuc(a1-3)[Gal(b1-4)]GlcNAc
# Method in brief: as §1
# [5] = molecular target: Fuc(a1-3)[Gal(b1-4)]GlcNAc(b1-2)Man
# Method in brief: as §1
# [6] = molecular target: Fuc(a1-3)[Gal(b1-4)]GlcNAc(b1-2)Man(a1-3)[Fuc(a1-3)[Gal(b1-4)]GlcNAc(b1-2)Man(a1-6)]Man(b1-4)GlcNAc(b1-4)GlcNAc
# Method in brief: as §1
# [7] = molecular target: Fuc(a1-3)[Gal(b1-4)]GlcNAc(b1-2)Man(a1-3)[Fuc(a1-3)[Gal(b1-4)]GlcNAc(b1-2)Man(a1-6)]Man(b1-4)GlcNAc(b1-4)[Fuc(a1-6)]GlcNAc
# Method in brief: as §1
# [8] = molecular target: Fuc(a1-3)[Gal(b1-4)]GlcNAc(b1-3)Gal(b1-3)[Fuc(a1-4)]GlcNAc
# Method in brief: as §1
# [9] = molecular target: Fuc(a1-3)[Gal(b1-4)]GlcNAc(b1-3)Gal(b1-4)[Fuc(a1-3)]GlcNAc
# Method in brief: as §1
# [10] = molecular target: Fuc(a1-3)[Gal(b1-4)]GlcNAc(b1-3)Gal(b1-4)[Fuc(a1-3)]GlcNAc(b1-3)Gal(b1-4)[Fuc(a1-3)]GlcNAc
# Method in brief: as §1
# [11] = molecular target: Fuc(a1-3)[Gal(b1-4)]GlcNAc(b1-3)GalNAc
# Method in brief: as §1
# [12] = molecular target: Fuc(a1-3)[Gal(b1-4)]GlcNAc(b1-6)GalNAc
# Method in brief: as §1
# [13] = molecular target: Fuc(a1-3)[Gal(b1-4)]GlcNAc(b1-6)[Gal(b1-3)GlcNAc(b1-3)]Gal(b1-4)Glc
# Method in brief: as §1
# [14] = molecular target: Fuc(a1-3)[Gal(b1-4)]GlcNAc6S
# Method in brief: as §1
# [15] = molecular target: Fuc(a1-3)[Gal3S(b1-4)]Glc
# Method in brief: as §1
# [16] = molecular target: Fuc(a1-3)[Gal3S(b1-4)]GlcNAc
# Method in brief: as §1
# [17] = molecular target: Fuc(a1-3)[Gal3S(b1-4)]GlcNAc6S
# Method in brief: as §1
# [18] = molecular target: Fuc(a1-3)[GalNAc(b1-4)]GlcNAc
# Method in brief: as §1
# [19] = molecular target: Fuc(a1-3)[GalNAc(b1-4)]GlcNAc6S
# Method in brief: as §1
# [20] = molecular target: Fuc(a1-4)GlcNAc
# Method in brief: as §1
# [21] = molecular target: Fuc(b1-3)GlcNAc
# Method in brief: as §1
# [22] = molecular target: Gal(a1-2)Gal
# Method in brief: as §1
# [23] = molecular target: Gal(a1-3)Gal
# Method in brief: as §1
# [24] = molecular target: Gal(a1-3)Gal(b1-3)GlcNAc
# Method in brief: as §1
# [25] = molecular target: Gal(a1-3)Gal(b1-3)GlcNAc(b1-2)Man
# Method in brief: as §1
# [26] = molecular target: Gal(a1-3)Gal(b1-3)GlcNAc(b1-2)Man(a1-3)[Gal(a1-3)Gal(b1-3)GlcNAc(b1-2)Man(a1-6)]Man(b1-4)GlcNAc(b1-4)GlcNAc
# Method in brief: as §1
# [27] = molecular target: Gal(a1-3)Gal(b1-3)GlcNAc(b1-3)GalNAc
# Method in brief: as §1
# [28] = molecular target: Gal(a1-3)Gal(b1-3)GlcNAc(b1-6)GalNAc
# Method in brief: as §1
# [29] = molecular target: Gal(a1-3)Gal(b1-3)[Fuc(a1-4)]GlcNAc(b1-2)Man(a1-3)[Gal(a1-3)Gal(b1-3)[Fuc(a1-4)]GlcNAc(b1-2)Man(a1-6)]Man(b1-4)GlcNAc(b1-4)GlcNAc
# Method in brief: as §1
# [30] = molecular target: Gal(a1-3)Gal(b1-4)Glc
# Method in brief: as §1
# [31] = molecular target: Gal(a1-3)Gal(b1-4)GlcNAc
# Method in brief: as §1
# [32] = molecular target: Gal(a1-3)Gal(b1-4)GlcNAc(b1-2)Man
# Method in brief: as §1
# [33] = molecular target: Gal(a1-3)Gal(b1-4)GlcNAc(b1-2)Man(a1-3)[Gal(a1-3)Gal(b1-4)GlcNAc(b1-2)Man(a1-6)]Man(b1-4)GlcNAc(b1-4)GlcNAc
# Method in brief: as §1
# [34] = molecular target: Gal(a1-3)Gal(b1-4)GlcNAc(b1-3)GalNAc
# Method in brief: as §1
# [35] = molecular target: Gal(a1-3)Gal(b1-4)GlcNAc(b1-6)GalNAc
# Method in brief: as §1
# [36] = molecular target: Gal(a1-3)Gal(b1-4)[Fuc(a1-3)]GlcNAc
# Method in brief: as §1
# [37] = molecular target: Gal(a1-3)Gal(b1-4)[Fuc(a1-3)]GlcNAc(b1-2)Man(a1-3)[Gal(a1-3)Gal(b1-4)[Fuc(a1-3)]GlcNAc(b1-2)Man(a1-6)]Man(b1-4)GlcNAc(b1-4)GlcNAc
# Method in brief: as §1
# [38] = molecular target: Gal(a1-3)GalNAc
# Method in brief: as §1
# [39] = molecular target: Gal(a1-3)[Gal(a1-4)]Gal(b1-4)GlcNAc
# Method in brief: as §1
# [40] = molecular target: Gal(a1-4)Gal(b1-3)GlcNAc(b1-2)Man(a1-3)[Gal(a1-4)Gal(b1-3)GlcNAc(b1-2)Man(a1-6)]Man(b1-4)GlcNAc(b1-4)GlcNAc
# Method in brief: as §1
# [41] = molecular target: Gal(a1-4)Gal(b1-4)Glc
# Method in brief: as §1
# [42] = molecular target: Gal(a1-4)Gal(b1-4)GlcNAc
# Method in brief: as §1
# [43] = molecular target: Gal(a1-4)Gal(b1-4)GlcNAc(b1-2)Man(a1-3)[Gal(a1-4)Gal(b1-4)GlcNAc(b1-2)Man(a1-6)]Man(b1-4)GlcNAc(b1-4)GlcNAc
# Method in brief: as §1
# [44] = molecular target: Gal(a1-4)Gal(b1-4)GlcNAc(b1-3)Gal(b1-4)Glc
# Method in brief: as §1
# [45] = molecular target: Gal(a1-4)GlcNAc
# Method in brief: as §1
# [46] = molecular target: Gal(a1-6)Glc
# Method in brief: as §1
# [47] = molecular target: Gal(b1-2)Gal
# Method in brief: as §1
# [48] = molecular target: Gal(b1-3)Gal
# Method in brief: as §1
# [49] = molecular target: Gal(b1-3)Gal(b1-4)GlcNAc
# Method in brief: as §1
# [50] = molecular target: Gal(b1-3)GalNAc
# Method in brief: as §1
# [51] = molecular target: Gal(b1-3)GalNAc(a1-3)[Fuc(a1-2)]Gal(b1-4)Glc
# Method in brief: as §1
# [52] = molecular target: Gal(b1-3)GalNAc(a1-3)[Fuc(a1-2)]Gal(b1-4)GlcNAc
# Method in brief: as §1
# [53] = molecular target: Gal(b1-3)GalNAc(b1-3)Gal
# Method in brief: as §1
# [54] = molecular target: Gal(b1-3)GalNAc(b1-3)Gal(a1-4)Gal(b1-4)Glc
# Method in brief: as §1
# [55] = molecular target: Gal(b1-3)GalNAc(b1-4)Gal(b1-4)Glc
# Method in brief: as §1
# [56] = molecular target: Gal(b1-3)GalNAc(b1-4)[Neu5Ac(a2-3)]Gal(b1-4)Glc
# Method in brief: as §1
# [57] = molecular target: Gal(b1-3)GlcNAc
# Method in brief: as §1
# [58] = molecular target: Gal(b1-3)GlcNAc(a1-3)Gal(b1-4)GlcNAc
# Method in brief: as §1
# [59] = molecular target: Gal(b1-3)GlcNAc(a1-6)Gal(b1-4)GlcNAc
# Method in brief: as §1
# [60] = molecular target: Gal(b1-3)GlcNAc(b1-2)Man
# Method in brief: as §1
binder,measurement,setting,value
CvGal2 (Crassostrea virginica) (protein) MGSSHHHHHHSSGLVPRGSHMRIREAGKRKDTTKVYQIPDGLFPGQQVMLRGRVPWGSKSFSINFSATPRMGEGDILFHLNPRPSEGVCIRNALLNGSWGAEEKWQPYFPFDDGRSFSVKIEVTNDAFRTFVNGRPFVDFLHRTDFRAGKYLTLREGAEYYDVIFQSKPNIPLTTAIHNGMRIGKTIRIRGMCTAQDGFAINFNDNRNNIYFHFNARPAQRTVVRNSYFGSWGNEETAISKEFPFYPFLYFYASFVCMEDKFAVYVNDEHFIDFAHRGNPNNISVLQIKGSVNVLDTECLEPMGEDAMTEVDSGLENGDLFVLNGLMTERGKTFAVNFLNGFTENDDIALHFNPRKSTGEVVLNSRYGGAWQSEEKVALPGVFWSNRPLQVKVETKRNKFKIYVNGVDLAKYKIRGNVEDVHAVQVKGDVFLLETLLLKRLMKPVWERLTGGIRPGTWVTLQGTPKKNWQQFVVNFALDDTLDGDIAFHFNVRRGARQVVRNHRQSGAWGREETVTPFFAFDSEATFEIVFFVKEEKFLIYFNGKLFFEFVHRVPVERITHIYMDGDCNFYEPEVVI,glycan array binding signal (z-score),[1],-0.033
same,glycan array binding signal (z-score),[2],-0.314
same,glycan array binding signal (z-score),[3],-0.332
same,glycan array binding signal (z-score),[4],-0.331
same,glycan array binding signal (z-score),[5],-0.323
same,glycan array binding signal (z-score),[6],-0.319
same,glycan array binding signal (z-score),[7],-0.333
same,glycan array binding signal (z-score),[8],-0.331
same,glycan array binding signal (z-score),[9],-0.335
same,glycan array binding signal (z-score),[10],-0.325
same,glycan array binding signal (z-score),[11],-0.324
same,glycan array binding signal (z-score),[12],-0.33
same,glycan array binding signal (z-score),[13],-0.072
same,glycan array binding signal (z-score),[14],-0.319
same,glycan array binding signal (z-score),[15],-0.337
same,glycan array binding signal (z-score),[16],-0.329
same,glycan array binding signal (z-score),[17],-0.334
same,glycan array binding signal (z-score),[18],-0.321
same,glycan array binding signal (z-score),[19],-0.338
same,glycan array binding signal (z-score),[20],-0.312
same,glycan array binding signal (z-score),[21],-0.333
same,glycan array binding signal (z-score),[22],-0.333
same,glycan array binding signal (z-score),[23],-0.333
same,glycan array binding signal (z-score),[24],-0.137
same,glycan array binding signal (z-score),[25],1.04
same,glycan array binding signal (z-score),[26],-0.259
same,glycan array binding signal (z-score),[27],0.213
same,glycan array binding signal (z-score),[28],0.505
same,glycan array binding signal (z-score),[29],-0.32
same,glycan array binding signal (z-score),[30],0.291
same,glycan array binding signal (z-score),[31],0.47
same,glycan array binding signal (z-score),[32],-0.023
same,glycan array binding signal (z-score),[33],3.52
same,glycan array binding signal (z-score),[34],-0.243
same,glycan array binding signal (z-score),[35],-0.257
same,glycan array binding signal (z-score),[36],-0.332
same,glycan array binding signal (z-score),[37],-0.329
same,glycan array binding signal (z-score),[38],-0.331
same,glycan array binding signal (z-score),[39],-0.287
same,glycan array binding signal (z-score),[40],-0.322
same,glycan array binding signal (z-score),[41],-0.306
same,glycan array binding signal (z-score),[42],-0.325
same,glycan array binding signal (z-score),[43],-0.336
same,glycan array binding signal (z-score),[44],-0.345
same,glycan array binding signal (z-score),[45],-0.346
same,glycan array binding signal (z-score),[46],-0.345
same,glycan array binding signal (z-score),[47],-0.321
same,glycan array binding signal (z-score),[48],-0.266
same,glycan array binding signal (z-score),[49],0.538
same,glycan array binding signal (z-score),[50],-0.291
same,glycan array binding signal (z-score),[51],3.35
same,glycan array binding signal (z-score),[52],4.05
same,glycan array binding signal (z-score),[53],-0.102
same,glycan array binding signal (z-score),[54],-0.079
same,glycan array binding signal (z-score),[55],-0.154
same,glycan array binding signal (z-score),[56],-0.219
same,glycan array binding signal (z-score),[57],-0.108
same,glycan array binding signal (z-score),[58],0.017
same,glycan array binding signal (z-score),[59],-0.138
same,glycan array binding signal (z-score),[60],-0.147
